# Reference: the antibiotic and cytotoxicity screens of Wong et al. (2023)
# The list shows a part of the results.
# What was measured:
# HSkMC = human skeletal muscle cells; experiment: cytotoxicity call (relative viability < 0.9); settings: 10 µM
# HepG2 = experiment: cytotoxicity call (relative viability < 0.9); settings: 10 µM
# S. aureus RN4220 = experiment: growth inhibition call (relative growth <= 0.2); settings: 50 µM
Compound,cytotoxicity call (HSkMC),cytotoxicity call (HepG2),growth inhibition call (S. aureus RN4220)
C[C@H](CO)N1C[C@H](C)[C@H](CN(C)C(=O)Nc2ccccc2)Oc2ccc(NS(=O)(=O)c3cn(C)cn3)cc2CC1=O,inactive,inactive,inactive
C[C@@H]1CN([C@@H](C)CO)C(=O)c2cccc(NC(=O)Nc3ccc(C(F)(F)F)cc3)c2O[C@H]1CN(C)Cc1ccncc1,inactive,inactive,inactive
COCC(=O)Nc1ccc2c(c1)C(=O)N(C)C[C@@H](OC)[C@H](C)CN(C(=O)Cc1ccccn1)[C@H](C)CO2,inactive,inactive,inactive
C[C@@H]1CN([C@H](C)CO)C(=O)c2c(c3ccccc3n2C)-c2ccccc2CO[C@H]1CN(C)Cc1cccc(C(=O)O)c1,inactive,inactive,inactive
C[C@@H]1CN([C@H](C)CO)C(=O)Cc2cc(NC(=O)Nc3ccc(C(F)(F)F)cc3)ccc2O[C@@H]1CN(C)Cc1ccc(-c2ccccc2)cc1,active,active,inactive
CCn1cc(C(=O)O)c(=O)c2cc(F)c(N3CCNCC3)cc21,inactive,inactive,active
CCCCC1=NC2(CCCC2)C(=O)N1Cc1ccc(-c2ccccc2S(=O)(=O)Nc2noc(C)c2C)c(COCC)c1,inactive,inactive,inactive
CN1C(=O)c2cc(NC(=O)Cc3cccs3)ccc2OC[C@H]2O[C@@H](CC(=O)NCCCN3CCOCC3)CC[C@@H]21,inactive,inactive,inactive
C[C@H]1CN([C@@H](C)CO)C(=O)Cc2cc(NS(=O)(=O)c3ccc(F)cc3)ccc2O[C@H]1CN(C)Cc1ccncc1,inactive,inactive,inactive
CC(C)NC(=O)Nc1cccc2c1O[C@H](CN(C)Cc1ccc(-c3ccccc3)cc1)[C@H](C)CN([C@@H](C)CO)C2=O,inactive,inactive,inactive
